Paper PMC12136788
This is one part of the list.

T1: UNK ZnF1-3 (human, UniProt Q9C0B0 31-174)
T1 sequence: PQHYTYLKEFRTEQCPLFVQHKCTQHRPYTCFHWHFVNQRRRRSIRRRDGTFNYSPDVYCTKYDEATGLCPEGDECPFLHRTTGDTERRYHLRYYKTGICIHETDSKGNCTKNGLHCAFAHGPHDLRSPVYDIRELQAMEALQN

B1: 134723116_134725800_2128_CDS_ENSMUSG00000060261_ENSMUST00000173341|mouse|control|control (ssRNA)
RNA: GGGAGUUCUACAGUCCGACGAUCAGGAGGCAAAUAGGACACAACUAGCUCAGGCUUUUUAACAACAAACUUGAUCUUAUUGCUGCCACGGACAAUCCUCUCGAGGCGUGGAAUCCCAAACCAGGUAGGGCUUCGGAAGGGGAUCAACAGAGGAUUGAGCAUCA
B2: chr18:6437031:6437032:-_ENSMUSG00000024240_ENSMUST00000028100|mus_mus|FALSE|FALSE (ssRNA)
RNA: GGGAGUUCUACAGUCCGACGAUCUGCAGUACUGUACAGAUAAUUGCUGUAUUCUUAAUUUACAGAUGUUGAUUUUUUCCUAUUAACAAUAAGAAAAGAAAGGUUGAAGCACGAGAGAUUCGAGAGCUGCGCAGUGCUGCCGAGCAACAGAGGAUUGAGCAUCA
B3: chr2:46810187:46810188:+_ENSG00000119729_ENST00000238738|hu_mus|FALSE|FALSE (ssRNA)
RNA: GGGAGUUCUACAGUCCGACGAUCGAAACGAAUAAUACUUUACUGUCUUGGUUCCUUCAGAUCAUAGGUUUGACAACUUAGCUCAUGUUAACUAUACAGUUUCUUCCAAUUCUAUCUAAAAACAGACCAAAACUAAAUGGGAAACAACAGAGGAUUGAGCAUCA
B4: chr7:79842110:79842111:+_ENSG00000127955_ENST00000351004|hu_hu|FALSE|FALSE (ssRNA)
RNA: GGGAGUUCUACAGUCCGACGAUCUAUAGUGAGAGGGCUCUUUUUGAUUUUUUCUUCAAAGAGAUCCUUCUUGUUUAGAAAAAGUAUAAUGGAUGUAUCUGUAAACCACUUGUUGUUACAUAUGCUGUCAAACAAUUUCAUGCUCAACAGAGGAUUGAGCAUCA
B5: chr11:46405157:46405158:+_ENSG00000110492_ENST00000395566|hu_hu|hu_hu_hu_mus_False|28_108 (ssRNA)
RNA: GGGAGUUCUACAGUCCGACGAUCCCCUUAGGGGUGGGGGCACUUGGUGUGGGCGUGAGAGGACAGGCGUGAUUGACAGAGCUGACAGGAAGACAAAAGGCACUGGUGGGUCACAUCUUGGGCCUGUGGGAGAGGAGGGCUCCGCAACAGAGGAUUGAGCAUCA
B6: chr2:113286301:113286302:+_ENSG00000114999_ENST00000233336|hu_hu|motif|central (ssRNA)
RNA: GGGAGUUCUACAGUCCGACGAUCAGCUGGCUGGGUCUGAGGUUGCUCCACAUCUGGGGGUGGGAAGACACUGGAAAUGGCGGUGUCCACGAUGCCUUGGCACAGUUCUGCAUAGAGCUUCUGAGCACAUGCAGGGGCACCGUUCAACAGAGGAUUGAGCAUCA
B7: 175938933_175939053_2160_3pUTR_ENSG00000115966_ENST00000264110|human|control|control (ssRNA)
RNA: GGGAGUUCUACAGUCCGACGAUCAAAUGAUAAUACUACUACCGUCACAGUUGAGGGUUAAGGGGUGGUCAAAAGAAAUGGAAGUGGGAAGAAAGAUUCAGUAACACCCCCAUUUAUUAAAACACCAGCAAAUUAAAAGUGAAACAACAGAGGAUUGAGCAUCA
B8: chr7:106416527:106416528:+_ENSMUSG00000055407_ENSMUST00000127492|mus_mus|FALSE|FALSE (ssRNA)
RNA: GGGAGUUCUACAGUCCGACGAUCGCAGGCCCUUGUGAUGCACGGCCACGCCAUGUUAGCCACAAAGCCUUUUUGUGGUCCUAAAUCAAAUCUCCAAUCUCCCUUUAACCCCAACCCAGACCCGCCAAUGUGGUUCCCACCGCUCAACAGAGGAUUGAGCAUCA
B9: chr2:73747301:73747302:-_ENSMUSG00000018770_ENSMUST00000018914|mus_mus|motif|central (ssRNA)
RNA: GGGAGUUCUACAGUCCGACGAUCAUAACCAAUGAUAAGACUGCCAAAGACUGUUCCAAUACCAGCACCAGAACCAGCAACUCCGGCUGUUGCAGCACCUGCACCAAUGAAUUUGGCAGCAGUAUCAAUGUCUCUGCUGAUUACCAACAGAGGAUUGAGCAUCA
B10: chr14:45754706:45754707:-_ENSMUSG00000021830_ENSMUST00000139526|mus_mus|FALSE|FALSE (ssRNA)
RNA: GGGAGUUCUACAGUCCGACGAUCGUAACUAGACGGAAGAUAUGCAGAUCCCACUGUGCUACAGGCUACUACAAGGUUGCUAAUUAUGCAACCUUGGUGACUAAUGACAUUAAAAGAAAGACAAUUCUUUGAUGGAGGAUCCAUCAACAGAGGAUUGAGCAUCA
B11: chr19:58870598:58870599:-_ENSMUSG00000025092_ENSMUST00000066285|mus_mus|FALSE|FALSE (ssRNA)
RNA: GGGAGUUCUACAGUCCGACGAUCUCUUCGAUUAAUAAUGCAUUUUUGACUCCUGUUUAUAUUGGUGCAUGCAAUUCUUUGCUACCCUGGCAAUUAACCAGACCUGGACUCUAAAAGCUAAACUUGGUCUAAGUAACAUUCUAACAACAGAGGAUUGAGCAUCA
B12: 119759185_119759305_4493_3pUTR_ENSMUSG00000025583_ENSMUST00000147781|mouse|control|control (ssRNA)
RNA: GGGAGUUCUACAGUCCGACGAUCAUACCUUGUAGCAGGAGAGGCCUUCCCUCUCUUCUACCCUCUCUCUUCCCCCAAUUGCUCUUAUCCAUUUCCCAGGACUGGCAGCACACUCUGAGAGGACAGUGGGGCUGGGCCAUGGCCCAACAGAGGAUUGAGCAUCA
B13: 43037672_43037792_896_CDS_ENSMUSG00000028454_ENSMUST00000098109|mouse|control|control (ssRNA)
RNA: GGGAGUUCUACAGUCCGACGAUCAGGCACAUGCGAGCGCUGAGGCUGGGCAAAGUCAAACCGCAGAGCGUCUAUCAGUACCAAAACCACCCUGGAGAAGCGGGAAGGCAUCCAGCAAGCCCCAGGCUUUCCAUGACUUCCCCACAACAGAGGAUUGAGCAUCA
B14: chr3:119217614:119217615:+_ENSG00000113845_ENST00000264244|hu_mus|FALSE|FALSE (ssRNA)
RNA: GGGAGUUCUACAGUCCGACGAUCGCUCCGCAAAGGCGGCUGCGGGGAGCGGGCGGCGGCGCGCCCAUGGCGCCCUCCUACCCGCAGAGAGACAGACACCCCAGGGUCGGCGGGCACCGUGGGAGAGGGUGACCUGUACAGCCCCAACAGAGGAUUGAGCAUCA
B15: chr7:151048522:151048523:+_ENSG00000013374_ENST00000566856|hu_mus|hu_hu_hu_mus_True|1_28 (ssRNA)
RNA: GGGAGUUCUACAGUCCGACGAUCCUGUUUCUUAUUUAUUACGAUCUUGAUGUAAUUUUCUUGAAAUCCGAAAGUUUCAGCUAUUUGACACCUCAGGUCUCUACCAGUGAUGUGCAAGCGGGUCUCCAACAAGCUUUUCCUAUCCAACAGAGGAUUGAGCAUCA
B16: 153574287_153574407_148_3pUTR_ENSG00000196504_ENST00000410080|human|control|control (ssRNA)
RNA: GGGAGUUCUACAGUCCGACGAUCGCAGUGGGGGUCUGCCACCUUCACCCUCCCCGCCCGAGUUACGUACGCCCCACAAACCUGAGGCCGCCAGGGGUAGGGUGGAGGGGGCGGGGGUAAGCAGCCUGUAGUGUUAGCGGUGGCCAACAGAGGAUUGAGCAUCA
B17: chr7:135119151:135119152:+_ENSMUSG00000030795_ENSMUST00000128851|mus_mus|FALSE|FALSE (ssRNA)
RNA: GGGAGUUCUACAGUCCGACGAUCACUUUGAAUCCCCAUUGAUAAUGCCACACACUUCAAGAAAAUGCUGUUUUCCCCCAGCUAGGGCUGGGAAAUGUCCUCAGCACAGAUGGGGGUAGGGGAAUUAGUAAUUCUUUUAAAUUACAACAGAGGAUUGAGCAUCA
B18: chr2:42509997:42509998:+_ENSG00000143924_ENST00000318522|hu_mus|hu_hu_hu_mus_True|68_78 (ssRNA)
RNA: GGGAGUUCUACAGUCCGACGAUCUCGCUGAGUCCUCUCCUCAUAAUUAAACAGGACUACUACUGAUGCAAUGAAAUAAACUAUCUCCCCUGUGGGAAGCAGGUAUACAUUCGCUCUACAGUCCUUUCCUCGAUAACCGUAUACCAACAGAGGAUUGAGCAUCA
B19: 141632510_141632630_611_CDS_ENSG00000069849_ENST00000286371|human|control|control (ssRNA)
RNA: GGGAGUUCUACAGUCCGACGAUCAUCAGGAUCAUUCAUACCACUGCAUGCUUGAAGUAAUGAAAUAGGAAACUGACAUGCAACAUAAACUGGACCCUUCUGUUCAAAAAGUGCUCCAUCAGGACAGACUGUGAGGUUCUUCUGCAACAGAGGAUUGAGCAUCA
B20: chrX:15845472:15845473:-_ENSG00000182287_ENST00000329235|hu_hu|FALSE|FALSE (ssRNA)
RNA: GGGAGUUCUACAGUCCGACGAUCCCACAAGAAGUCAUCAACAAGGGAGGAGAGUUAUGUCAGUCCAAUUUCUUCAAGAACACUACGUGGGGUUUCAGCUUCCUCCUGCAGUAGAUCAGCCUGCUCAAUUGCUUUAAGGACAUUCAACAGAGGAUUGAGCAUCA
B21: chr4:17845017:17845018:+_ENSG00000109805_ENST00000514176|hu_mus|hu_hu_hu_mus_False|1_18 (ssRNA)
RNA: GGGAGUUCUACAGUCCGACGAUCGCUCUCUUAACUUGUAUCUUCAUUAAGGAACUCUGCAAGGUUAAGUUUACUUUUCUGUAGCGCAGCUGUUUUGGCUCGUCUGGGUAAUCUCAUUUCAUUUCUGGAUGGUGGUUUGGAACUCAACAGAGGAUUGAGCAUCA
B22: chr10:70097624:70097625:+_ENSG00000096746_ENST00000354695|hu_mus|FALSE|FALSE (ssRNA)
RNA: GGGAGUUCUACAGUCCGACGAUCCUUUGAUUUCACUCCUGCUACUCCUGAAGAUCUCAAUAUACCUUGAAAGAACUGAACUAUUUCCUCUUUGCUGCAACCAAAUGGCAGUCCACGAAGUCGCACGGUCCCAUCGCUAGCGUCCAACAGAGGAUUGAGCAUCA

target: T1, UNK ZnF1-3; experiment: nsRBNS (natural sequence RNA bind-n-seq); RBNS binding buffer (assumed for nsRBNS): 25 mM Tris pH 7.5, 150 mM KCl, 3 mM MgCl2, 0.01% Triton X-100, 500 ug/ml BSA, 20 U/ml SUPERase-In, 4 C; UNK is unkempt and MSI1 is Musashi-1; names of the RNAs are library labels; protein concentration not given here; high values mean tight binding

Binder	binding signal
B1	0.963 enrichment R
B2	0.891 enrichment R
B3	0.866 enrichment R
B4	0.443 enrichment R
B5	3.18 enrichment R
B6	1.26 enrichment R
B7	2.02 enrichment R
B8	0.831 enrichment R
B9	1.06 enrichment R
B10	1.19 enrichment R
B11	0.926 enrichment R
B12	1.05 enrichment R
B13	0.767 enrichment R
B14	0.721 enrichment R
B15	0.752 enrichment R
B16	0.609 enrichment R
B17	0.824 enrichment R
B18	0.719 enrichment R
B19	1.39 enrichment R
B20	1.53 enrichment R
B21	0.464 enrichment R
B22	0.93 enrichment R
